In all, about 48,000 compounds went through this assay and about 1,200 (2.5%) were called active. Another 2% or so got no clear call; they are omitted.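 The calls were made as follows: active = activation of at least 60% and not above a set upper limit (about 1 call in 100 departs from these limits); inconclusive = activation of 40% to 60%, or above that upper limit; inactive = activation under 40%.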 Some of the results follow.
target: Probable G-protein coupled receptor 32 (Homo sapiens) (UniProt O75388); assay: qHTS for Agonists of Human Resolvin D1 Receptor DRV1; conditions: CHO-K1 GPR32 beta-arrestin PathHunter luminescence, 90 min; at 76.9 µM; stronger effect = higher value; zero percent set by DMSO-only wells
Procedure, shortened: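 Beta-arrestin recruitment read-out: luminescence from complemented beta-Gal in CHO-K1 GPR32 PathHunter cells, measured 1 h after detection reagent at ambient temperature following 90 min compound exposure at 37 °C; DMSO served as basal (EC0) control.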

Chain of UniProt O75388 (O75388 whole entry, looked up): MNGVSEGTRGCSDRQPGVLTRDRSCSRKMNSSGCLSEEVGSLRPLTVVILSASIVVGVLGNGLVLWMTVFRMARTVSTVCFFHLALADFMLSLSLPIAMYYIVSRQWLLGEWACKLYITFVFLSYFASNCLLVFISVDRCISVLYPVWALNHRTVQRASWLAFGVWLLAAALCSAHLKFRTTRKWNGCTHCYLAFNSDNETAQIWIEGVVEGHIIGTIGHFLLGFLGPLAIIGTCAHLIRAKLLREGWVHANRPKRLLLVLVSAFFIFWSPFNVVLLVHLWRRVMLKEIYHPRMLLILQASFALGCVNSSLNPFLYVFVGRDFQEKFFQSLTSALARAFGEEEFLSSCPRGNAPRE

activation, inactive:
CC(C)(C)OC(=O)N1CCC(c2c(C(=O)N3CCN(c4ccc(Cl)cc4)CC3)cnn2-c2ccc(F)cc2F)CC1 -13.3%
Cc1ccccc1OCC(=O)Nc1ccc2nc(SCC(=O)N(C)c3ccccc3)sc2c1 -0.907%
Cn1cc(S(=O)(=O)c2ccc(Cl)cc2)c(=O)c2cc(F)c(N3CCCC3)cc21 1.55%
COc1ccc(Cl)cc1NC(=O)c1cc2ccc3ccc(C)[nH]c3c2n1 -14.2%
COc1ccc(-c2cc(C(=O)Nc3ccc4c(c3)OCO4)no2)cc1OC -1.31%
COc1cc(NC(=O)c2cc(-c3cccs3)on2)c(OC)cc1Cl -13.3%
COc1ccc(CNc2nc(-c3ccco3)nn2C(=O)c2ccccc2Cl)cc1 -33.3%
O=C(c1cc(-c2ccc(Cl)cc2)on1)N(Cc1cccc(F)c1)Cc1ccco1 0.056%
C[C@H](Cc1ccc(O)c(O)c1)[C@@H](C)Cc1ccc(O)c(O)c1 30.1%
Cn1c(=O)c2nc(SCC(=O)Nc3cc(Cl)cc(Cl)c3)n(C)c2n(C)c1=O -11.1%
CCc1ccc(NC(=O)CSc2c(C)cnc3c2c(=O)n(C)c(=O)n3C)cc1 3.16%
Cc1nc2sccn2c(=O)c1S(=O)(=O)NCc1ccc(F)cc1 0.583%
Cc1ccc(Cn2c(CNS(=O)(=O)c3ccc(C(C)(C)C)cc3)nc3cccnc32)cc1 -31.2%
COc1ccccc1CNc1nc2ccccc2c2nc(-c3cccnc3)nn12 -10.9%
O=C(COc1ccccc1Cl)OCc1cc(=O)n2nc(C3CC3)sc2n1 -3.62%
COc1ccc(NC(=O)C(=O)NCCc2ccc(OC)c(OC)c2)c(OC)c1 9.02%
Cc1c(NC(=O)c2cc(-c3ccc(O)cc3)on2)c(=O)n(-c2ccccc2)n1C -8.05%
COCCCNC(=O)c1cnn(-c2ccccc2Cl)c1C1CCN(C(=O)OC(C)(C)C)CC1 -15.6%
COc1ccc(CCNC(=O)c2cccc(-n3c(C)nc4cccnc43)c2)cc1OC 2.05%
COc1ccc(-c2cc3nc(-c4ccc(Br)cc4)cc(C(F)(F)F)n3n2)cc1 -2.4%
COC(=O)c1ccc(NC(=O)CSc2cn(CC(=O)N3CCCCCC3)c3ccccc23)cc1 -14.8%
COc1ccc(CNC(=O)C2CCN(C(=O)c3ccc(-n4ccc5ccccc54)s3)CC2)cc1 -0.76%
CCN(CC)c1nn2c(=O)c(C(=O)NCc3cccc(C)c3)cnc2s1 -6.67%
